# Experimental data reported in PubChem BioAssay AID1347417 (National Center for Advancing Translational Sciences (NCATS), 2020).
# Screen size: about 120,000 compounds; about 5,300 (4.4%) were called active. Inconclusive results, whose numbers are uncertain, are shown with a selection of clear calls. Calls follow the shape of the dose curve; as a rule, active = well fitted inhibition curve with a large enough effect; inconclusive = small, poorly fitted or top-dose-only effect; inactive = no such curve, though single readings can be large or run the other way. Potencies of inconclusive entries are doubtful fits and often do not repeat.
# Experiment: qHTS Primary assay for Inhibitors of Plasmodium falciparum Dd2 growth in vitro; also: nearly all actives have a fitted effect of over 65% in size;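 as to activity, negative = inhibition: plate controls were DMSO vehicle for no effect and reference drug for full effect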
# Conditions: P. falciparum Dd2 growth, SYBR Green, 72 h; activity, negative = inhibition: at 28.9 µM (top of the series) unless noted; series mostly up to 28.9 µM
# Outline: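 Infected erythrocytes (Dd2, 0.3% parasitemia, 2.5% hematocrit final) are added to compound in RPMI-1640/Albumax II medium, grown 72 h at 37C in low oxygen, then lysed with saponin/Triton-X containing SYBR Green and read by fluorescence.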
# Potency is read from the fitted curve at half-maximal effect; tags tell the direction and shape of the fitted curve.
Structure (SMILES),Potency,outcome,"activity, negative = inhibition"
CCc1ccc(S(=O)(=O)c2nnn3c2nc(NCCc2ccccc2)c2sccc23)cc1,"inconclusive: 11.2 µM [inhibitor, single point]",,
COc1cc(NC(=O)Cn2ncc3c(=O)oc4ccccc4c32)cc(OC)c1OC,"inconclusive: 1 µM [inhibitor, full curve, poor fit]",,
Cc1nc(CCNC(=O)CC(C)(C)C)no1,,inactive,
Cc1nc2c(c(N3CCCC(COc4cccc(F)c4)C3)n1)CCNCC2 (stereo not drawn),"inconclusive: 0.631 µM [inhibitor, full curve, poor fit]",,
Cc1nn2c(c1-c1ccccc1C(C)C)N(Cc1ccc3c(c1)CCO3)CCC2,active: 7.08 µM,,
CC(C)CCN1CCOc2cc(C(=O)Nc3ccc4cn[nH]c4c3)ccc2C1,"inconclusive: 5.62 µM [inhibitor, single point]",,
CN(C)c1ccc(C(=O)N2CCC3(CC2)NC(=O)N(c2ccccc2)N3)cc1,"inconclusive: 11.2 µM [inhibitor, single point]",,
COc1ccc(-n2nc3n(c2=O)CCN([S+](=O)([O-])c2cccs2)C3)cc1,,inactive,
CCCn1c(C)cnc1CC1CCCN(C(=O)Cc2cccc(F)c2)C1 (stereo not drawn),"inconclusive: 3.55 µM [inhibitor, full curve, poor fit]",,
COCc1cc(C[C@@H]2CC[C@H](O)[C@@H](CNCc3ccccc3OC)O2)no1,"inconclusive: 5.01 µM [inhibitor, partial curve]",,
CC(=O)N1c2ccc(S(=O)(=O)NCC3CCC(C(=O)NCCC(C)C)CC3)cc2CC1C (stereo not drawn),"inconclusive: 17.8 µM [inhibitor, partial curve, poor fit]",,
Cc1ccc(F)cc1S(=O)(=O)N1CCC(n2cnnc2C(C)C)CC1,,inactive,
Cc1onc(C(=O)N2C[C@@H](Oc3ccccc3)C[C@H]2C(=O)NC2CC2)c1Cn1cccn1,,,inactive: -18.5%
Cc1cn2nc(C(=O)Nc3ccccc3)cc2c(N(C)Cc2ccccc2)n1,"inconclusive: 1.41 µM [inhibitor, partial curve, poor fit]",,
COCCNC(=O)C1COC2(CCN(C(=O)c3ccc(OC)cc3)CC2)N1C(=O)c1cccc(C)c1 (stereo not drawn),,,inactive: -11.7%
CN(C)CCN(C)C(=O)c1ccc(-c2ncc3cnc(-c4cccc(F)c4)cn23)cc1,"inconclusive: 15.8 µM [inhibitor, single point]",,
CCOC(=O)C1(C)C=C(Nc2ccc(C(N)=O)cc2)C(=O)N1c1ccccc1 (stereo not drawn),"inconclusive: 7.08 µM [inhibitor, partial curve]",,
C[C@]1(CO)C2CC[C@@H](O)[C@@H](CC(=O)N3CCC[C@H]3CO)[C@]2(C)CC[C@H]1OC(=O)Nc1cccc(C(F)(F)F)c1 (stereo partly drawn),"inconclusive: 10 µM [inhibitor, partial curve]",,
O=C(Nc1ccc(S(=O)(=O)Nc2ccccc2)cc1)N1CCCC1,"inconclusive: 3.98 µM [inhibitor, single point]",,
COc1ccccc1NC(=O)N1CC(=O)Nc2sc3c(c2C1c1ccccc1)CCCC3 (stereo not drawn),"inconclusive: 1.58 µM [inhibitor, full curve, poor fit]",,
O=c1c2nc(-c3ccc(Cl)cc3)ccc2ncn1Cc1ccccn1,"inconclusive: 12.6 µM [inhibitor, partial curve, poor fit]",,

Structure (SMILES),Potency,outcome,"activity, negative = inhibition"
O=C(C1CCOCC1)N1CCC2(COc3ncccc3[S+](=O)([O-])N2)C1 (stereo not drawn),,,inactive: 12.1%
Cc1cnc(CC2CCN(C(=O)C3COc4ccccc4O3)CC2)n1Cc1ccc(F)cc1 (stereo not drawn),"inconclusive: 3.98 µM [inhibitor, single point]",,
CCOc1ccc(-c2oc3ccccc3c(=O)c2O)cc1OCC,active: 10 µM,,
CCCS(=O)(=O)c1ncc(Cl)c(C(=O)N(Cc2ccccc2)Cc2ccco2)n1,,,inactive: 7.85%
O=C(NC1CCCc2c1[nH]c1ccc(F)cc21)C1(c2ccccc2)CCOCC1 (stereo not drawn),,,inactive: -18.5%
O=C1c2cnc(-c3cc(F)cc(F)c3)nc2OCCN1Cc1ccccc1,,inactive [at 44.1 µM],
COc1ccc(CCNC(=O)c2ccc3c(c2)N(C)C2CCCCN2C3=O)cc1OC (stereo not drawn),,inactive,
Cn1nc(C2CCCN(C(=O)CCc3ccccc3)C2)n(-c2ccccc2)c1=O (stereo not drawn),,,inactive: -19.1%
O=C1NCCCCCN(C(=O)c2ccoc2)[C@H]2CCCC[C@@H]12,"inconclusive: 17.8 µM [inhibitor, single point]",,
O=C(NCc1c[nH]c2ncccc12)c1cncc(Br)c1,"inconclusive: 10 µM [inhibitor, single point]",,
O=C1N[C@H](CCC(=O)N2CCC(c3nnc4ccccn34)CC2)C(=O)Nc2ccccc21,,,inactive: -14.1%
COc1ccc(-n2nc(C(=O)N3CCC(C)CC3)c3c4ccccc4n(C)c3c2=O)cc1Cl,"inconclusive: 0.794 µM [inhibitor, partial curve, poor fit]",,
CCc1nn(CC(=O)NCCc2ccc(OC)cc2OC)c(=O)c2cc3sccc3n12,"inconclusive: 20 µM [inhibitor, single point]",,
COc1cccc(CNC(=O)Cn2cc3c(n2)-c2c(oc(C(=O)N4CCCC4)c2C)CC3)c1OC,"inconclusive: 17.8 µM [inhibitor, single point]",,
COc1ccc(CNC(=O)c2cc3c(s2)CN(C2CC2)C3)cc1OC,"inconclusive: 15.8 µM [inhibitor, single point]",,
COCc1nnc2n1CCC(NC(=O)CCc1nc3ccccc3s1)CC2 (stereo not drawn),"inconclusive: 4.47 µM [inhibitor, partial curve, poor fit]",,
CS(=O)(=O)NC[C@H]1O[C@@H](CC(=O)N2CCN(c3ccccn3)CC2)[C@H](O)[C@@H]1O,,inactive [at 44.1 µM],
Cc1ccc(CSC2=Nc3ccccc3C3=NC(CCC(=O)N4CCN(c5ccccc5)CC4)C(=O)N23)cc1 (stereo not drawn),"inconclusive: 10 µM [inhibitor, single point]",,
COc1ccc(C(=O)N2CCC(n3cc(-c4nc(-c5ccccc5)no4)nn3)C2)cc1 (stereo not drawn),"inconclusive: 1.41 µM [inhibitor, full curve, poor fit]",,
CC(C)c1ccc(CC(=O)N2CCCc3ncc(C(=O)NCc4cccc(Cl)c4)cc32)cc1,"inconclusive: 11.2 µM [inhibitor, single point]",,
COc1ccccc1N1CCN(C(=O)c2nnn3cc(-c4ccc(F)cc4)[nH]c(=O)c23)CC1,"inconclusive: 3.98 µM [inhibitor, single point]",,

Structure (SMILES),Potency,outcome,"activity, negative = inhibition"
COCCN1C(=O)c2ccccc2C(C(=O)Nc2cc(OC)cc(OC)c2)C12CCCC2 (stereo not drawn),active: 11.2 µM,,
Cn1c(=O)c2c(nc(SCC(=O)Nc3ccc(OC(F)(F)F)cc3)n2Cc2cccc(C(F)(F)F)c2)n(C)c1=O,active: 11.2 µM,,
O=C(NCc1cccc(F)c1)c1c[nH]c2ncccc12,"inconclusive: 31.6 µM [inhibitor, single point]",,
O=C1NCCCCCCN(Cc2ccccn2)[C@H]2CCC[C@@H]12,"inconclusive: 4.47 µM [inhibitor, partial curve]",,
Cc1cccc(CN2CCCC23Cc2ccccc2CNC3=O)c1 (stereo not drawn),"inconclusive: 11.2 µM [inhibitor, partial curve]",,
CNc1nc2c(c(C(=O)N3CCCC3)n1)CN(CCC(C)c1ccc(C)o1)CC2 (stereo not drawn),"inconclusive: 11.2 µM [inhibitor, partial curve, poor fit]",,
COc1cccc(CNC(=O)CCc2nnc3n(C)c(=O)c4sccc4n23)c1,,,inactive: -14.3%
C#CCNC(=O)[C@@H]1Cc2cn(Cc3ccncc3)c3cccc(c23)[C@H](CC(C)C)N1,active: 10 µM,,
Cc1c(CNCc2ccc(Cl)cc2)c(C(=O)O)c(C)n1Cc1ccc(F)cc1,"inconclusive: 17.8 µM [inhibitor, single point]",,
CC1CCN(C(=O)C[C@@H]2c3nc(NC(=O)c4cccc(F)c4)sc3C[C@@H]3[C@](C)(CO)[C@H](O)CC[C@]32C)CC1,"inconclusive: 1.12 µM [inhibitor, full curve, poor fit]",,
CCOc1ccccc1C(=O)N1CCN(C(=O)c2nnn3c2COC(c2ccccc2)C3)CC1 (stereo not drawn),"inconclusive: 1.58 µM [inhibitor, full curve, poor fit]",,
Cc1ccc2nc(CO[C@H]3CN(C4CCC4)C[C@H]3F)[nH]c2c1,"inconclusive: 11.2 µM [inhibitor, partial curve, poor fit]",,
Cc1ccc(Cl)cc1N1CCN(C(=O)c2cc(S(=O)(=O)N3CCC(C)CC3)cn2C)CC1,"inconclusive: 7.94 µM [inhibitor, partial curve, poor fit]",,
N#Cc1ccc(CN2CCN(c3nccc(Cl)n3)C(=O)C2)cc1,"inconclusive: 22.4 µM [inhibitor, single point]",,
CN(CCc1ccccn1)[C@@H]1[C@H](O)[C@H](CO)O[C@@H]1CNC(=O)c1ccc(C(F)(F)F)cc1,"inconclusive: 7.08 µM [inhibitor, partial curve]",,
COc1ccc(C(=O)NC(C(=O)NCC(C)C)C2CCN(C(=O)C3CC3)CC2)cc1 (stereo not drawn),"inconclusive: 3.55 µM [inhibitor, full curve]",,
COc1ccccc1-c1cn2c(n1)CO[C@@H](CNC(C)C)C2,,inactive [at 44.1 µM],
CN(C)CC1(O)CCCN(Cc2cccc3ncccc23)C1 (stereo not drawn),"inconclusive: 1.26 µM [inhibitor, partial curve, poor fit]",,
COC(=O)c1ccc(C2Nc3c(C)cc(C)cc3C3C=CCC32)cc1 (stereo not drawn),"inconclusive: 8.91 µM [inhibitor, single point]",,
Cc1ccccc1CSc1cn(CCNC(=O)c2cccs2)c2ccccc12,"inconclusive: 1.12 µM [inhibitor, full curve, poor fit]",,
CCOc1ccc(CC(=O)Nc2c(C(=O)c3ccc(F)cc3)oc3ccccc23)cc1OCC,"inconclusive: 3.55 µM [inhibitor, partial curve]",,
